# Read counts are not given, so values of variants with three or more changes are uncertain.
# B1: OR4K15 (parent)
# chain: GUUAACGGUCAUAGGCCAUGGAAACUAGGAGCACCAUUUCGCUGCCAGUGAAGAAAUGAACAAAGAAAAUCUGGGCCAGGCAGGCAUCAAAAGAAAUAGUCUUGCGCUCAACCAGAAAGUCUGUAAUCAUUUUAAGGGUA
# Variants of: B1
# Experiment: self-cleavage, relative activity (ratio to wild type); higher = more cleavage; in vitro, sequencing; the parent is a self-cleaving ribozyme
row,Variant,self-cleavage
1,A30G A52U U122C,0.99
2,G31A A62C A82G A94G,0.64
3,A33G A52G A60G A69U,1.13
4,A30G A55G A62U,0.52
5,C32G U49C A68G U131C,0.97
6,A30G A82G A125U,0.98
7,A30G U39A U72A U132A,0.37
8,A30G A64G A67G,0.72
9,A30U A52G U108C A135G A140G,0.01
10,A33G A66G A116G U120C,0.33
11,C32U G44A C76A U100C,0.06
12,A33G A47G A51C A117G U130C,0.15
13,A33G A47C A55G A69G U70A A126G,0.21
14,A30G U120C U131C U139C,0.9
15,G29C A54G A59G A89G,0.95
16,A30G A82U A94G A96U,0.18
17,A30G A52G A96U,1.44
18,A30G A117U U120A,1
19,A30G A36G A89G,1.72
20,A30G A33G A51G U108A,0.01
21,A30G U100C A116G A135G,0.61
22,G31A A33G U38G A64G G84C,0.27
23,A33G A51U A90G,0.47
24,A30G C42U U70C A89U A94G U130C,0.43

row,Variant,self-cleavage
1,G31U U49A A64G,0.9
2,A30C U108A G123A,0.02
3,A30G A59G A66G,0.78
4,A30U A51U A54G A66G A90G A96G U133A,1.32
5,A33G C34U U38A A86U U87C U127C,0.34
6,A33G A66G A67G G73A G75A,0.13
7,A33G A90G A94G A98G U108C U130C,0.01
8,G31A A60U A90G,1.88
9,C32U A89G A117G,1.97
10,G31U A69G A114U,0.02
11,A30G A55U U72A,0.18
12,A33G G41A U49C A96G,0.95
13,A30U A33G A47G,1.01
14,A30G U43C A91G U102A,0.47
15,G31A U39C A69G A117U U122C,0.27
16,A30U G53A A117G,2.59
17,A33G A54G A69G U102C,1.49
18,A33G A78C U130A,0.12
19,A30U A64U U127C,0.96
20,A30G A47U A94G A129C,0.39
21,A30U A86G A92G U103C A129G,0.59
22,A33G A68G U127C,0.32
23,A33G G44A A94G A125G,0.25
24,A33G A114U A116U,0

row,Variant,self-cleavage
1,G29A U57C A90G A110G,0.06
2,A30G A68G U103C A114G U124C,0.05
3,G29A A69G A95G,1.91
4,C32U A89G A95G U97C U100C U127C,1.67
5,A33C A89G A126G,0.98
6,A30U A60G U70C A94G,0.76
7,A33G A64G A117C,0.22
8,A30G A86G G99A,0.12
9,A30G A59G U87C,1.21
10,A30G U43C A62G A69G U100C A117G,0.76
11,A30C A94G U100C,1.62
12,A30U G31U A67G U108C,0.01
13,A30G U57C A90U A91G,1.52
14,A30G A55G U57C U70A U97C U103C U108C,0.03
15,A33G A59U A117G,1.19
16,A33G A60G A82G A91U U124C,0.26
17,A30G A117G A129G U131C,1.56
18,A30G U38A A59G A86U A98U,0.41
19,A30G A114U A116G A126G,0
20,A33C A55U A64G A89G A116G U122C,0.02
21,A33G A66G A116G,0.72
22,A33G A62G U120A,1.22
23,A33G A68G G75C U120A U122C,0.06
24,A30G A55G U132C,1.39

row,Variant,self-cleavage
1,A30U A64U U122C U132A,1.57
2,A30G A59C G80A,0.35
3,A33G C61U A111G A114G,0.03
4,A30U A98G U132G A140U,0.39
5,A30G A47G U57C A69U,1.12
6,G29C A60G A116G U120C,0.05
7,G29U U49C A64G A92G,1.82
8,A33G A56G A134G,1.16
9,A30G A54U A66G U72C C113U,0.02
10,A30G A59U A86G G123A,1.09
11,A30G A110U A118G,1.76
12,G31A A89U U122C,1.75
13,A30G A117G U130C A140G,0.13
14,A33G A51G A63G,0.86
15,A33C A117G A126G,2.73
16,G29U U39C U70C A86G,0.89
17,C32U U38C C85U,1.82
18,A33G U37A U49C C76U A134G,0.05
19,A33G A55G A67G G79C A91C,0.09
20,A33G A78G A86G A117G,0.08
21,A33G A86G U87A,0.42
22,A30G U49G A89G,0.71
23,A33G A67G U122C A125G,0.38
24,A33G A63G A66U A96G,0.94

row,Variant,self-cleavage
1,A30U A60U U70C,0.65
2,A33G A91U U102C,2.38
3,A30G U132G A135G,1.03
4,A33G A69G A91U,0.57
5,A33G A62G A91G,0.89
6,A30G U43G U108C,0
7,A30G A33G U108C A114C,0.01
8,A30G U49A U70C,1.11
9,A30G A78U G104A U130C,0
10,A33C A66G U108A,0.03
11,G29U A78G A94G A96G U131C,0.02
12,A30G U38C A64U,0.93
13,G31C A55G U72G A90G A135U,0.1
14,A30G A54G U70C A118G,0.22
15,A33G A94G A111G,0.03
16,G31C U39C A52G A62U A89U U127C,0.72
17,A30G A62G A66G U103C,0.59
18,A30G U108C A116G,0.02
19,C32A A33G C45U A69U A89U A91G,1.67
20,A30U A51G G75U A98G,0.05
21,A30G A60G A129G,1.59
22,A30G U70A A116G,0.67
23,A33G A91G A92G,1.12
24,A33C A68G U108C A114G,0.01

row,Variant,self-cleavage
1,G31A U103G U131C,0.08
2,A30G A33G A64G U100C,2.18
3,G31A A64G A82U C109U,0.11
4,A30U U72G U127C,0.18
5,G29U A59U A89G,1.64
6,A33G A62G A67G A95G A135G,0.35
7,A30G A59G A64G,1.25
8,A30U A114G A117G,0.32
9,A30G A67G A91G U97C A117G A118C,0.03
10,A30G A69G A126G U131C A135G,1.18
11,A30G U37C A68U A110G,0.22
12,A30G C85U A94G,0.65
13,A30G A89G U103A,0.79
14,G29U U39A A59G,1.78
15,A33G A47G A67G C88U A129C U131C,0.23
16,A30U U102C U120C U132C,2.29
17,A33G C46U A68G A111U,0.19
18,A30G A54G U102C,0.49
19,A33G A78U A94G,0.25
20,A30G A52G A67G U108C,0.04
21,A30G A54G A59G,0.85
22,A30G U38C A98G A111G,0.03
23,A30G A82G A94G A116G,0.01
24,A30U C32U U139C,1.29

row,Variant,self-cleavage
1,A33G A91G A129U,0.34
2,A33G C71U U124C,0.1
3,A30G A68G U70G U108C A110U A111U,0
4,A30G A56G A125G,0.6
5,A33G C85A A117C,0.25
6,A30G A55G A59G A64G C76U,0.26
7,G29U A54U A56C A63G A134G G136A,1.05
8,A30G A62G A96G U132C,1.29
9,A30G U37C A52G C107U,0.03
10,C32U A66G A86G,0.48
11,A30G A56G U100C A117G A118G,0.72
12,A30U U49C A98G,0.36
13,A33G A64C A68G,0.97
14,A30G A33G G44C C46U A52G U132C,1.06
15,A30U A59U A82U,0.44
16,A30U U37C A67G A69G A78G U132C,0.14
17,G31A U39C A54C,1.43
18,A30G C42G A98G,0.99
19,A30G A116U A126G,0.02
20,A30G U43C A59U U102C A135G,1.32
21,A30G A69G A92G U100C,2.04
22,A30G A52G A78U,0.35
23,A30G A63G A98G A126G,0.48
